The campaign covered roughly 150,000 compounds. About 540 (0.36%) showed an effect of 50% or more. The list shows a part of the results.
test system: Plasmodium falciparum; assay: Primary screen in NF54 nanoGlo assay, in single point, at 2uM, 72h; a lower Z score goes with more inhibition; type: functional, Erythrocyte; conditions: timepoint 72 hour

Compound	% Inhibition [%]	Z score
Cn1cccc1CN[C@H]1CCOc2ccc(F)cc21	-10	1.36
Cc1cc(CNC(=O)[C@]2(c3ccc(F)cc3)CC2(C)C)ccn1	-7	1.44
CN(C[C@H]1CCOC1)c1ccccc1S(C)(=O)=O	-16	1.66
Cc1ccc(NC(=O)CC(=O)N[C@@H](C)c2nc3cc(C)ccc3[nH]2)c(C)c1	-3	0.54
Cc1cc(F)ccc1S(=O)(=O)N1CC(Cn2ccnn2)C1	-4	0.65
FC(F)(F)Cn1ccnc1CN1CCOC2(CCCC2)C1	1	-0.26
Cc1ccnc(N2CCC[C@H]2c2ccc3c(c2)OCCO3)n1	-3	0.65
CCc1cc(CC)c(NC(=O)N(C)Cc2cnc(N)nc2)c(CC)c1	-20	2.12
CCC[C@H](NC(=O)c1cc2c(s1)CCC2)c1nnn[nH]1	-3	0.41
Cc1ccc(Cl)c(S(=O)(=O)N[C@H]2CNC[C@@H]2c2ccccc2)c1	2	-0.38
Cc1cc([C@H]2C[C@H]3CC[C@@H](C2)N3C(=O)[C@@H]2CCC[C@H](N)C2)ccc1F	-8	0.95
CC1(C)CCC[C@@H]1N(Cc1ccccc1)C(=O)Nc1ccc(C(N)=O)cc1F	-4	0.57
O=C(NCCc1ccco1)OCC(F)(F)F	-5	0.59
Cn1cc(-c2cccc3c2OC(F)(F)O3)c(C(=O)O)n1	-13	2.01
COC(=O)CCC(=O)Nc1cc(Cl)cc(Cl)c1	0	-0.01
CCCS(=O)(=O)N1CC(S(=O)(=O)c2ccc(Cl)cc2)C1	-21	2.72
CN1CCC(N(C)Cc2ccc(OCc3ccccc3)cc2)CC1	25	-3.8
Cc1cc(C(=O)N[C@H]2CCOC3(CC(C(=O)O)C3)C2)cc(C)c1F (stereo partly drawn)	-8	1.5
CN(C)[C@@H](CNCc1c[nH]nc1-c1cccnc1)c1cccs1	-12	1.2
Cc1[nH]ncc1C(=O)N[C@@H](CO)c1ccc(Cl)cc1C(F)(F)F	-9	0.81
Cc1ccccc1N1CCN(C(=O)c2ccc3ncccc3c2)CC1	37	-1.04

Compound	% Inhibition [%]	Z score
c1ccc(-c2nc(CNc3nnc([C@@H]4CCCO4)o3)cs2)nc1	-13	1.29
O=C(Nc1ccccc1)Nc1ccc(=O)n2c1[C@@H]1C[C@@H](CN(C(=O)Nc3ccc(F)cc3)C1)C2	0	-0.03
O=C(NC1CCCCC1)N1CC(n2cc(CO)nn2)C1	-4	0.83
COCc1ccccc1C(=O)N1CCCC[C@H](N2CCCC2)C1	-11	0.98
Cc1cnc(CN[C@@H](C)c2ccc(C)c(F)c2)o1	-12	2.28
COc1ccc(CN(C)C(=O)[C@H]2NCC23CCOCC3)cc1C	-4	0.66
CC(=O)N[C@H]1CN(Cc2cccnc2)C[C@@H]1c1ccc(C)cc1	-4	0.68
COc1ccccc1-c1ncc(CN(C)C[C@H]2CC(=O)N(C3CCCC3)C2)s1	-7	1.44
COc1cc([C@H]2CC(=O)Nc3c2c(=O)[nH]n3C2CCOCC2)cc(OC)c1O	-7	0.87
O=C(NC1CCCCC1CO)NC1CCOC1C1CC1 (stereo not drawn)	12	-1.82
Cc1cc(=O)[nH]c(CCNC(=O)N2CCC[C@H]2c2nc3c(C)cccc3[nH]2)n1	3	-0.54
CNc1nc(C)cc(C(=O)Nc2ccnn2C[C@H]2CCOC2)n1	35	-5.12
COc1cc(C)sc1C(=O)NCc1cc2n(n1)CCNC2	-12	1.39
COc1ccc(-n2cc(-c3cccc(OC)c3)nc2NC(=O)CN(CC(C)C)C(=O)CC(C)C)cc1	6	-0.54
O=C1Cc2ccc(CC(=O)N3CC(=O)N(C4CC4)C3)cc2N1	-5	0.84
O=C(Cc1cc(-c2ccccc2)on1)NCCNC(=O)C1CCCC1	-4	0.44
CC[C@@H](C(=O)NCc1ccc(Cl)cc1)N(C)CC	-2	0.35
O=C(NCCn1nc(C2CC2)cc1C1CC1)c1ccncc1	-4	0.88
O=C(Nc1ccc(C(F)(F)F)cc1)c1ccccc1NCc1ccccc1	-9	1.1
CN(CC1CCCCO1)c1nnc(Cc2c[nH]c3ccccc23)n1CC1CCOC1 (stereo not drawn)	-3	0.6
N#Cc1c(-c2ccccc2)cc(-c2ccc(F)cc2)nc1N1CCCCC1	7	-0.89

Compound	% Inhibition [%]	Z score
CC(C)c1nnc2n1CCN(c1cncc(-n3cccn3)n1)C2	9	-1.16
COc1cccc(-c2cc3n(C)c(C)c(CCC(=O)Nc4ccc(C)cc4)c(=O)n3n2)c1	-13	1.57
CN(C)[C@H](c1ccc2c(c1)OCO2)c1nc(C2CC2)nn1-c1ccccc1	-4	0.57
Nc1ncnc(N2CCC[C@]3(CNC(=O)C3)C2)c1Cl	-4	0.68
CC(C)C(=O)NCCNC(=O)N(Cc1cccc(Cl)c1)C(C)C	-10	1.29
COc1cc(CN2[C@@H]3CC[C@H]2CN(C)C(=O)C3)ccc1N1CCCC1	14	-2.15
COCc1nc(CC(C)C)nc(N2CCN(C(=O)c3ccco3)CC2)c1Cc1cccc(Cl)c1	-10	1.21
O=C(N[C@H]1CCOC[C@H]1C1CCOCC1)c1cncc(F)c1	-2	0.41
Cc1nc(-c2cccnc2)nc2c1CC(=O)N2C(C)C	-13	1.77
CCOc1ccccc1N(C)C(=O)CCOC	-4	0.36
COc1ccc(-c2cc(N3CC[C@H](NC(=O)c4ccc(C)cc4)C3)[nH]n2)cc1	-10	1.05
NCc1ncc(-c2ccc(O[C@H]3CCOC3)cc2)cn1	-6	0.59
Cc1nc(C)c([C@H](C)NC(=O)CCC(=O)c2ccc(Cl)cc2)s1	2	-0.23
COc1ccc([C@@H]2CCCN2C(=O)CNC(C)(C)c2nccs2)cc1OC	0	0.01
CCC(=O)N1CCN(C(=O)c2cc3n(n2)CCCC3)CC1	-6	0.88
O=C(c1cc(-n2cccn2)ccc1Cl)N1CCO[C@]2(CNCCOC2)C1	-12	1.51
O=C(O)CCNC(=O)CCCc1ccc(F)c(F)c1	0	-0.09
COCCN1CC2(CCC1=O)CCN(Cc1nnc(C(C)C)o1)CC2	-5	0.72
Cn1nc(CNC(=O)c2ccc(S(=O)(=O)N3CCOCC3)cc2)cc1C1CC1	-8	1.44
CC1CC(NC(=O)Cc2c(Cl)cccc2Cl)C(=O)O1 (stereo not drawn)	-5	1.02
CCOc1cc(C2NC(=O)c3c(n[nH]c3C)N2)ccc1OC(C)C(=O)N(C)C (stereo not drawn)	0	0.1

Compound	% Inhibition [%]	Z score
CCc1nc(N2CCN(S(=O)(=O)c3ccccc3)CC2)c2c(C)nn(-c3ccccc3C)c2n1	-16	1.55
Cc1ccc(S(=O)(=O)Cc2cn3ccc(C)cc3n2)cc1	-37	4.31
COc1ccc(-n2cc(-c3cccc(OC)c3)nc2NC(=O)CN(CC2CC2)S(=O)(=O)c2ccc(Cl)cc2)cc1	-18	2.56
Cc1cc(-c2cc(S(=O)(=O)N[C@@H](C)c3nncn3C)c(C)s2)on1	-1	0.14
N#Cc1ccccc1NC(=O)c1ccc(-n2cccn2)nn1	-3	0.63
Cc1csc(NC(=O)CCc2cnn(C)c2)n1	3	-0.37
O=C(O)c1ccc(OCCN2CCOc3cc(F)ccc3C2)c(Cl)c1	-13	2.08
CN(C)c1nc(Cn2cc(F)ccc2=O)ns1	-7	0.96
CCOc1ccc(NC(=O)[C@H](CC)n2cnc3oc(C)c(C)c3c2=O)cc1	13	-1.56
CC(=O)N(C)C[C@H]1CCN(S(=O)(=O)c2ccccc2)C[C@H]1N(C)C	-3	0.45
CCc1noc(CC)c1CNC(=O)c1nccn1CC	-5	0.87
Cn1ccc2c(-c3cnn(-c4nnn[nH]4)c3)ccnc21	-11	1.02
c1c(CC2CCCCC2)nnn1[C@H]1CO[C@H]2[C@@H]1OC[C@@H]2NCC1CCCCC1	-16	2.49
CCn1ncc(C(=O)N2c3ccncc3C[C@@H]2C)c1C	-5	1
Cc1cc(CN(C)Cc2ccc(C)c3ncccc23)n[nH]1	14	-1.88
CC1CCN(S(=O)(=O)O[C@H]2CCN(C(=O)OC(C)(C)C)C2)CC1	3	-0.3
COc1ccc(CN2C[C@@H]3C[C@H](C2)c2c(-c4ccc(NC(C)=O)cc4)ccc(=O)n2C3)cc1	-6	0.95
Cc1ncsc1CCNc1nccc(-c2c(C)nn(C)c2C)n1	-19	1.88
CCC(C(=O)Nc1cc(C)on1)N1CCN(C2CCCCNC2=O)CC1 (stereo not drawn)	0	0
CCNC(=O)[C@H](C)NS(=O)(=O)CCOCC1CCCC1	-11	0.93
COc1ccc(C2=NO[C@@H](Cn3c(Cc4ccc(Cl)cc4)nc4c3c(=O)n(C)c(=O)n4C)C2)cc1	-9	1.38
